# Measured values published in the supplement of paper PMC3334620.
# The full ranking holds about 33,000 sequences; the median of “E-score (-0.5 to 0.5)” is about -0.013, and the highest 2% start at about 0.3. Some of the results follow.
# Biological target: T1, Msn1 (UniProt P22148)
# T1 sequence: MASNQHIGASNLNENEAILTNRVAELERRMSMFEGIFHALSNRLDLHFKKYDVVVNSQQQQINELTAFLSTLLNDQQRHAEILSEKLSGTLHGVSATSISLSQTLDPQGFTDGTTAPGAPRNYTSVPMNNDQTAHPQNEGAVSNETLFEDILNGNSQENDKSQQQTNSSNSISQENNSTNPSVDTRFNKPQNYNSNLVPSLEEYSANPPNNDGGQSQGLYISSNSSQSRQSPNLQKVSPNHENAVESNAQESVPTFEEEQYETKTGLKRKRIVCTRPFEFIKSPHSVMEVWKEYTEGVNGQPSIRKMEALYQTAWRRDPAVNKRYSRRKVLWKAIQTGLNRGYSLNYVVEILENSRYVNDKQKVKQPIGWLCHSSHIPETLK
# Assay: PBM E-score (8-mer binding enrichment) (E-score (-0.5 to 0.5)); higher = stronger / more preferred TF binding; most listed sequences are background and not binding sites
# Conditions: protein concentration: 200 nM; construct: GST-full length
# Description: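 Universal 'all 10-mer' protein binding microarrays (Agilent AMADID 015681) probed with GST-tagged S. cerevisiae TFs (full-length or DBD) made by in vitro transcription/translation (PURExpress), about 100-200 nM. Bound TF was detected with fluorescent anti-GST. Each ungapped 8-mer (which stands for itself and its reverse complement) is scored by the PBM enrichment score (E-score), a modified Wilcoxon-Mann-Whitney statistic from -0.5 to +0.5, computed with the Universal PBM Analysis Suite. Scale: above 0.35 generally sequence-specific binding.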
row,Sequence,PBM E-score
1,AGTGGAAT,-0.028
2,CATTAACA,0.194
3,ATAACTTA,0.13
4,AGTCTAAT,0.0556
5,GATTGACA,0.0347
6,AGGGTCTG,-0.326
7,AGACATTC,0.445
8,CCAAAGAA,-0.0182
9,CAGACCAG,-0.044
10,CCTGTGCA,-0.255
11,GCCACAAC,-0.00493
12,CCACAGGC,-0.399
13,AGAGCGCC,-0.0862
14,AGTACCGA,0.0931
15,ACGAGCCA,0.0269
16,GATTGACC,-0.0794
17,GACTGATC,-0.00353
18,AGCCATCG,-0.0879
19,AAGCCCGC,-0.156
20,ACTCGACC,-0.143
21,ATAGATAA,0.165
22,CACTGTAG,0.0136

row,Sequence,PBM E-score
1,GGCAAGGA,0.15
2,CAGCACTG,-0.226
3,AAGAGAGC,-0.261
4,CCGGTAAA,0.062
5,CCATAAGC,-0.123
6,AAGTCGCA,0.174
7,ATGGCGCC,-0.215
8,AGACGGCA,0.0024
9,CCGATCCG,0.068
10,TATGTCAA,0.31
11,AATCGCGA,0.12
12,ATACCTCG,0.163
13,CCTATCGC,-0.273
14,AAGCGGGC,-0.207
15,ACGGTGGG,-0.132
16,ATCGTAAC,0.00362
17,CGGTACCG,0.149
18,GGCTTTTA,-0.106
19,CGCGAGGA,-0.162
20,AAATAAGC,0.0511
21,ACTTGTAA,0.0138
22,AATATGTC,0.478

row,Sequence,PBM E-score
1,GCTGGTCC,-0.188
2,TCCAAGCA,-0.0625
3,CACGGTCG,-0.0634
4,CTGTCTAA,0.111
5,TCTAGGCA,-0.00071
6,GATTCCGC,0.0634
7,CGAAAAGC,-0.0729
8,CCCGTGTC,0.14
9,CAGAGGAA,0.0345
10,CCATTCGC,-0.254
11,TGTCGTAA,0.257
12,GCCAACTA,-0.14
13,ATTTAGTC,0.228
14,CACCTCAG,-0.168
15,CAAGGCCA,-0.078
16,CGTGAGGC,-0.12
17,AGGGATCG,-0.273
18,CAGATTGC,-0.0607
19,ACCGCCCT,-0.216
20,GGCGGGAA,-0.214
21,ACGACTAT,0.199
22,CTCATCCC,-0.135

row,Sequence,PBM E-score
1,AAAGTAAG,0.0969
2,CATCGGGC,-0.0678
3,TGGATACA,-0.119
4,CCCGTTGA,-0.0471
5,GGCGGACC,-0.31
6,GCCAGCAA,-0.135
7,CTAAACAC,0.0571
8,ACGACTAA,0.0439
9,CGCCGACG,-0.109
10,ACACCCCC,-0.189
11,GGCGCCAC,-0.195
12,CAGCTTCC,-0.224
13,GTGGGAAC,-0.0258
14,CATCGATA,0.147
15,ATTAAACA,0.184
16,AATATCTA,-0.05
17,GGTGACGA,-0.0575
18,CAGCTCCC,-0.263
19,GAACCTCC,-0.205
20,ATGACATC,0.349
